From PubChem BioAssay AID330 (DTP/NCI, 2004)
Toxic doses and inconclusive results are not listed. Certain results were filed several times, with different values. This is not the full list of results. There may be further records. Values given together differ for a reason that is not stated; they may come from other doses, times, organisms or constructs than stated.

Tested on: P388 leukemia ip, CD2F1 mice, survival T/C
Test: NCI In Vivo Anticancer Drug Screen. Data for tumor model P388 Leukemia (intraperitoneal) in CD2F1 (CDF1) mice
Conditions: endpoint: median survival time, higher = longer survival

O=NN(CCCl)C(=O)NCCO
T/C (dose: 1.56 mg/kg/injection, schedule: Q01DX005 (ip), vehicle: water): 102 % of control and 168 % of control | T/C (dose: 6.25 mg/kg/injection, schedule: Q01DX005 (ip), vehicle: water): 101 % of control and 346 % of control

O=P1(N(CCCl)CCCl)NCCCO1 (stereo not given)
T/C (dose: 160.0 mg/kg/injection, schedule: Q04DX003 (ip), vehicle: saline): 100 % of control and 336 % of control | T/C (dose: 240.0 mg/kg/injection, schedule: Q04DX003 (ip), vehicle: saline): 106 % of control, 111 % of control, 153 % of control

Cc1c(CNc2ccc(C(=O)NC(CC(=O)O)C(=O)O)cc2)ccc2nc(N)nc(N)c12 (stereo not given)
T/C (dose: 25.0 mg/kg/injection, schedule: Q04DX003 (ip), vehicle: saline with Tween-80): 86 % of control and 181 % of control
